# This is one part of the list.
# B1: Epa23 (Candida glabrata) (protein)
# chain: MGSSHHHHHHSSGLVPRGSHMIPNPFEGTINNFPSGCSPNHGLYNRGLTMELYNYSYIHPQSIQSYFNTSTLKKMEKGQCWDPSYLDVNYPRTGYKTHNRFAKVNGIDGILDFEFNPTRSCVPSKGQLPQNYNYPLQFTLSNFTMLLYGYFKPKVTAKHTFTIFADDLLFLNFGAGNAFDCCQQQDTIDDFGNYQAYALWGSDTQQNTLTVNLDANIYYPIRMFYNNRDFKGALNMYFTTDESNTKINDFSGYLFNIPDSSEGCPAHISYETECGNVSG
# Columns and labels:
# Test in all cases: glycan array binding signal (z-score within array); higher = stronger binding
# Details in all cases: glycan notation: IUPAC condensed, linker removed
# [1] = target: Neu5Ac(a2-3)Gal(b1-4)GlcNAc(b1-2)Man(a1-3)[Neu5Ac(a2-6)Gal(b1-4)GlcNAc(b1-2)Man(a1-6)]Man(b1-4)GlcNAc(b1-4)GlcNAc
# Outline: (§1)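 From the Consortium for Functional Glycomics database, 3228 arrays were curated, keeping only those whose protein sequence was available. Binding is given as a within-array Z-score averaged across arrays sharing a protein sequence and across linkers. Negative Z-scores can be read as non-binding.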
# [2] = target: Neu5Ac(a2-3)Gal(b1-4)GlcNAc(b1-2)[Neu5Ac(a2-3)Gal(b1-4)GlcNAc(b1-4)]Man(a1-3)[GlcNAc(b1-4)][Neu5Ac(a2-3)Gal(b1-4)GlcNAc(b1-2)[Neu5Ac(a2-3)Gal(b1-4)GlcNAc(b1-6)]Man(a1-6)]Man(b1-4)GlcNAc(b1-4)GlcNAc
# Outline: as §1
# [3] = target: Neu5Ac(a2-3)Gal(b1-4)GlcNAc(b1-2)[Neu5Ac(a2-3)Gal(b1-4)GlcNAc(b1-4)]Man(a1-3)[GlcNAc(b1-4)][Neu5Ac(a2-3)Gal(b1-4)GlcNAc(b1-4)Man(a1-6)]Man(b1-4)GlcNAc(b1-4)GlcNAc
# Outline: as §1
# [4] = target: Neu5Ac(a2-3)Gal(b1-4)GlcNAc(b1-2)[Neu5Ac(a2-3)Gal(b1-4)GlcNAc(b1-6)]Man(a1-6)[Neu5Ac(a2-3)Gal(b1-4)GlcNAc(b1-2)Man(a1-3)][GlcNAc(b1-4)]Man(b1-4)GlcNAc(b1-4)GlcNAc
# Outline: as §1
# [5] = target: Neu5Ac(a2-3)Gal(b1-4)GlcNAc(b1-3)Gal
# Outline: as §1
# [6] = target: Neu5Ac(a2-3)Gal(b1-4)GlcNAc(b1-3)Gal(b1-3)GlcNAc
# Outline: as §1
# [7] = target: Neu5Ac(a2-3)Gal(b1-4)GlcNAc(b1-3)Gal(b1-4)GlcNAc
# Outline: as §1
# [8] = target: Neu5Ac(a2-3)Gal(b1-4)GlcNAc(b1-3)Gal(b1-4)GlcNAc(b1-2)Man(a1-3)[Neu5Ac(a2-3)Gal(b1-4)GlcNAc(b1-3)Gal(b1-4)GlcNAc(b1-2)Man(a1-6)]Man(b1-4)GlcNAc(b1-4)GlcNAc
# Outline: as §1
# [9] = target: Neu5Ac(a2-3)Gal(b1-4)GlcNAc(b1-3)Gal(b1-4)GlcNAc(b1-3)Gal(b1-4)GlcNAc
# Outline: as §1
# [10] = target: Neu5Ac(a2-3)Gal(b1-4)GlcNAc(b1-3)Gal(b1-4)GlcNAc(b1-3)Gal(b1-4)GlcNAc(b1-2)Man(a1-3)[Neu5Ac(a2-3)Gal(b1-4)GlcNAc(b1-3)Gal(b1-4)GlcNAc(b1-3)Gal(b1-4)GlcNAc(b1-2)Man(a1-6)]GalNAc
# Outline: as §1
# [11] = target: Neu5Ac(a2-3)Gal(b1-4)GlcNAc(b1-3)Gal(b1-4)GlcNAc(b1-3)GalNAc
# Outline: as §1
# [12] = target: Neu5Ac(a2-3)Gal(b1-4)GlcNAc(b1-3)Gal(b1-4)GlcNAc(b1-3)[Neu5Ac(a2-3)Gal(b1-4)GlcNAc(b1-3)Gal(b1-4)GlcNAc(b1-6)]GalNAc
# Outline: as §1
# [13] = target: Neu5Ac(a2-3)Gal(b1-4)GlcNAc(b1-3)Gal(b1-4)GlcNAc(b1-6)[Gal(b1-3)]GalNAc
# Outline: as §1
# [14] = target: Neu5Ac(a2-3)Gal(b1-4)GlcNAc(b1-3)Gal(b1-4)[Fuc(a1-3)]GlcNAc
# Outline: as §1
# [15] = target: Neu5Ac(a2-3)Gal(b1-4)GlcNAc(b1-3)GalNAc
# Outline: as §1
# [16] = target: Neu5Ac(a2-3)Gal(b1-4)GlcNAc(b1-3)[Neu5Ac(a2-3)Gal(b1-4)GlcNAc(b1-6)]GalNAc
# Outline: as §1
# [17] = target: Neu5Ac(a2-3)Gal(b1-4)GlcNAc(b1-6)GalNAc
# Outline: as §1
# [18] = target: Neu5Ac(a2-3)Gal(b1-4)GlcNAc(b1-6)[Gal(b1-3)]GalNAc
# Outline: as §1
# [19] = target: Neu5Ac(a2-3)Gal(b1-4)GlcNAc(b1-6)[Neu5Ac(a2-3)Gal(b1-3)]GalNAc
# Outline: as §1
# [20] = target: Neu5Ac(a2-3)Gal(b1-4)GlcNAc6S
# Outline: as §1
# [21] = target: Neu5Ac(a2-3)Gal(b1-4)[Fuc(a1-3)]GlcNAc
# Outline: as §1
# [22] = target: Neu5Ac(a2-3)Gal(b1-4)[Fuc(a1-3)]GlcNAc(b1-2)Man
# Outline: as §1
# [23] = target: Neu5Ac(a2-3)Gal(b1-4)[Fuc(a1-3)]GlcNAc(b1-3)Gal
# Outline: as §1
# [24] = target: Neu5Ac(a2-3)Gal(b1-4)[Fuc(a1-3)]GlcNAc(b1-3)Gal(b1-4)GlcNAc
# Outline: as §1
# [25] = target: Neu5Ac(a2-3)Gal(b1-4)[Fuc(a1-3)]GlcNAc(b1-3)Gal(b1-4)[Fuc(a1-3)]GlcNAc(b1-3)Gal(b1-4)[Fuc(a1-3)]GlcNAc
# Outline: as §1
# [26] = target: Neu5Ac(a2-3)Gal(b1-4)[Fuc(a1-3)]GlcNAc(b1-3)GalNAc
# Outline: as §1
# [27] = target: Neu5Ac(a2-3)Gal(b1-4)[Fuc(a1-3)]GlcNAc(b1-6)[Gal(b1-3)]GalNAc
# Outline: as §1
# [28] = target: Neu5Ac(a2-3)Gal(b1-4)[Fuc(a1-3)]GlcNAc(b1-6)[Neu5Ac(a2-3)Gal(b1-3)]GalNAc
# Outline: as §1
# [29] = target: Neu5Ac(a2-3)Gal(b1-4)[Fuc(a1-3)]GlcNAc6S
# Outline: as §1
# [30] = target: Neu5Ac(a2-3)Gal6S(b1-4)GlcNAc
# Outline: as §1
# [31] = target: Neu5Ac(a2-3)Gal6S(b1-4)[Fuc(a1-3)]GlcNAc
# Outline: as §1
# Neu5Ac(a2-3)GalNAc = target: Neu5Ac(a2-3)GalNAc
# Outline: as §1
# [32] = target: Neu5Ac(a2-3)GalNAc(b1-4)GlcNAc
# Outline: as §1
# [33] = target: Neu5Ac(a2-3)[GalNAc(b1-4)]Gal(b1-4)Glc
# Outline: as §1
# [34] = target: Neu5Ac(a2-3)[GalNAc(b1-4)]Gal(b1-4)GlcNAc
# Outline: as §1
# [35] = target: Neu5Ac(a2-3)[GalNAc(b1-4)]Gal(b1-4)GlcNAc(b1-3)GalNAc
# Outline: as §1
# [36] = target: Neu5Ac(a2-3)[Neu5Ac(a2-6)]GalNAc
# Outline: as §1
binder,measurement,setting,value
B1,glycan array binding signal (z-score),[1],-0.076
same,glycan array binding signal (z-score),[2],-0.227
same,glycan array binding signal (z-score),[3],-0.243
same,glycan array binding signal (z-score),[4],-0.268
same,glycan array binding signal (z-score),[5],-0.227
same,glycan array binding signal (z-score),[6],0.004
same,glycan array binding signal (z-score),[7],-0.231
same,glycan array binding signal (z-score),[8],-0.218
same,glycan array binding signal (z-score),[9],-0.249
same,glycan array binding signal (z-score),[10],-0.163
same,glycan array binding signal (z-score),[11],-0.278
same,glycan array binding signal (z-score),[12],-0.155
same,glycan array binding signal (z-score),[13],-0.157
same,glycan array binding signal (z-score),[14],-2.14
same,glycan array binding signal (z-score),[15],-0.224
same,glycan array binding signal (z-score),[16],-0.265
same,glycan array binding signal (z-score),[17],-0.232
same,glycan array binding signal (z-score),[18],0.024
same,glycan array binding signal (z-score),[19],-0.31
same,glycan array binding signal (z-score),[20],-0.201
same,glycan array binding signal (z-score),[21],-0.2
same,glycan array binding signal (z-score),[22],-0.186
same,glycan array binding signal (z-score),[23],-0.21
same,glycan array binding signal (z-score),[24],-0.288
same,glycan array binding signal (z-score),[25],-0.207
same,glycan array binding signal (z-score),[26],-0.082
same,glycan array binding signal (z-score),[27],-0.196
same,glycan array binding signal (z-score),[28],-0.165
same,glycan array binding signal (z-score),[29],-0.174
same,glycan array binding signal (z-score),[30],-0.198
same,glycan array binding signal (z-score),[31],-0.302
same,glycan array binding signal (z-score),Neu5Ac(a2-3)GalNAc,-0.218
same,glycan array binding signal (z-score),[32],-0.153
same,glycan array binding signal (z-score),[33],-0.189
same,glycan array binding signal (z-score),[34],-0.198
same,glycan array binding signal (z-score),[35],-0.176
same,glycan array binding signal (z-score),[36],-0.213
